Laboratory results as given in the supplement of paper PMC4967469.
By IC50 is meant the dose at which the fit gives 50% viability; fits outside the tested doses are given as limits. AUC is the area under the same curve over the 256-fold range up to the top dose, as a fraction; the more sensitive the line, the further below 1. For part of these data: The top dose, if marked as inferred, was derived from the fitted curves, not read from the paper. For part of these data: Drugs with an entry number were screened twice under separate entries, and the two screens often disagree.

Experiments:
Assay in all cases: Viability of human cancer cell lines after 72 h of drug (GDSC screen)
Thapsigargin = compound: C/C=C(/C)C(=O)O[C@H]1C(C)=C2[C@H]([C@@H]1OC(=O)CCCCCCC)[C@@](C)(OC(C)=O)C[C@H](OC(=O)CCC)[C@@]1(O)[C@H]2OC(=O)[C@@]1(C)O [Thapsigargin]; conditions: top dose 0.512 µM; top dose inferred
Experimental: (§1)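 Human cancer cell lines in 384-well plates, medium with 10% serum, drug for 72 h over a 256-fold dose range (nine 2-fold or five 4-fold steps up to the top dose). Adherent lines were fixed and stained with the nucleic acid dye Syto60, suspension lines read with resazurin; signal relative to control wells, capped at 0 and 100%. One two-parameter sigmoid per drug and line, fitted in a mixed model over all curves with the slope shared within a line.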

QL-X-138 = compound: C=CC(=O)Nc1cc(-n2c(=O)ccc3cnc4ccc(-c5cn[nH]c5)cc4c32)ccc1C [QL-X-138]; conditions: top dose 10.24 µM; top dose inferred
Experimental: as §1

GSK269962A = compound: CCn1c(-c2nonc2N)nc2cnc(Oc3cccc(NC(=O)c4ccc(OCCN5CCOCC5)cc4)c3)cc21 [GSK269962A]; conditions: top dose inferred
Experimental: as §1

MPS-1-IN-1 = compound: COc1cc(N2CCC(O)CC2)ccc1Nc1cc(Nc2ccccc2S(=O)(=O)C(C)C)c2cc[nH]c2n1 [MPS-1-IN-1]; conditions: top dose 20 µM; top dose inferred
Experimental: as §1

(5Z)-7-Oxozeaenol = compound: COc1cc(O)c2c(c1)/C=C/C[C@H](O)[C@H](O)C(=O)/C=C\C[C@H](C)OC2=O [(5Z)-7-Oxozeaenol]; conditions: top dose 10 µM; top dose inferred
Experimental: as §1

CP466722 = compound: COc1cc2ncnc(-n3nc(-c4ccccn4)nc3N)c2cc1OC [CP466722]; conditions: top dose 16 µM; top dose inferred
Experimental: as §1

Zibotentan = compound: COc1nc(C)cnc1NS(=O)(=O)c1cccnc1-c1ccc(-c2nnco2)cc1 [Zibotentan]; conditions: top dose 20 µM; top dose inferred
Experimental: as §1

ABT-888 = compound: C[C@]1(c2nc3c(C(N)=O)cccc3[nH]2)CCCN1 [ABT-888]; conditions: top dose 5 µM; top dose inferred
Experimental: as §1

CMK = compound: Cc1ccc(-c2c(C(=O)CCl)n(CCCO)c3ncnc(N)c23)cc1 [CMK]; conditions: top dose 4 µM; top dose inferred
Experimental: as §1

ABT-869 = compound: Cc1ccc(F)c(NC(=O)Nc2ccc(-c3cccc4[nH]nc(N)c34)cc2)c1 [ABT-869]; conditions: top dose 1.024 µM; top dose inferred
Experimental: as §1

CHIR-99021 = compound: Cc1cnc(-c2cnc(NCCNc3ccc(C#N)cn3)nc2-c2ccc(Cl)cc2Cl)[nH]1 [CHIR-99021]
Experimental: as §1

Cytarabine = compound: Nc1ccn([C@@H]2O[C@H](CO)[C@@H](O)[C@@H]2O)c(=O)n1 [Cytarabine]; conditions: top dose 2 µM
Experimental: as §1

KU-55933 = compound: O=c1cc(-c2cccc3c2Sc2ccccc2S3)oc(N2CCOCC2)c1 [KU-55933]; conditions: top dose 10 µM
Experimental: as §1

[1] = top dose 2.5 µM, screen: GDSC drug entry 127
[2] = top dose 5 µM, screen: GDSC drug entry 1192
[3] = top dose 2.56 µM, screen: GDSC drug entry 154
[4] = top dose 10 µM, screen: GDSC drug entry 1241, top dose inferred

Cell Line	AUC (Thapsigargin)	IC50 (Thapsigargin) [µM]	AUC (QL-X-138)	IC50 (QL-X-138) [µM]	AUC (GSK269962A; [1])	IC50 (GSK269962A; [1]) [µM]	AUC (GSK269962A; [2])	IC50 (GSK269962A; [2]) [µM]	AUC (MPS-1-IN-1)	IC50 (MPS-1-IN-1) [µM]	AUC ((5Z)-7-Oxozeaenol)	IC50 ((5Z)-7-Oxozeaenol) [µM]	AUC (CP466722)	IC50 (CP466722) [µM]	AUC (Zibotentan)	IC50 (Zibotentan) [µM]	AUC (ABT-888)	IC50 (ABT-888) [µM]	AUC (CMK)	IC50 (CMK) [µM]	AUC (ABT-869)	IC50 (ABT-869) [µM]	AUC (CHIR-99021; [3])	IC50 (CHIR-99021; [3]) [µM]	AUC (CHIR-99021; [4])	IC50 (CHIR-99021; [4]) [µM]	AUC (Cytarabine)	IC50 (Cytarabine) [µM]	AUC (KU-55933)	IC50 (KU-55933) [µM]
COR-L279 (small cell lung carcinoma, suspension)	0.533	0.039	0.562	0.925	0.847	1.55	0.927	> 5	0.969	> 20	0.85	6.33	0.782	5.95	0.988	> 20	0.991	> 5	0.99	> 4	0.988	> 1.02	0.991	> 2.56	0.99	> 10	0.991	> 2	0.988	> 10
CP66-MEL (melanoma, adherent)	0.197	0.00346	0.911	> 10.2	0.966	> 2.5	0.962	> 5	0.872	> 20	0.642	1.64	0.878	> 16	0.976	> 20	0.985	> 5	0.972	> 4	0.98	> 1.02	0.978	> 2.56	0.955	> 10	0.934	> 2	0.978	> 10
CPC-N (small cell lung carcinoma, suspension)	0.331	0.0104	0.659	1.85	0.982	> 2.5	0.823	3.32	0.912	> 20	0.731	3.05	0.841	12.7	0.985	> 20	0.985	> 5	0.858	3.78	0.98	> 1.02	0.985	> 2.56	0.976	> 10	0.879	> 2	0.965	> 10
CTV-1 (acute myeloid leukaemia, suspension)	0.212	0.00575	0.577	0.992	0.983	> 2.5	0.956	> 5	0.925	> 20	0.683	1.8	0.555	1.37	0.99	> 20	0.979	> 5	0.814	1.66	0.984	> 1.02	0.953	> 2.56	0.845	5.2	0.223	0.0242	0.965	> 10
CW-2 (large intestine, adherent)	0.989	> 0.512	0.943	> 10.2	0.982	> 2.5	0.923	> 5	0.906	> 20	0.827	6.73	0.952	> 16	0.987	> 20	0.988	> 5	0.983	> 4	0.988	> 1.02	0.989	> 2.56	0.968	> 10	0.811	1.16	0.983	> 10
D-263MG (glioma, adherent)	0.324	0.00921	0.955	> 10.2	0.434	0.0993	0.591	0.585	0.983	> 20	0.663	1.97	0.981	> 16	0.979	> 20	0.98	> 5	0.973	> 4	0.982	> 1.02	0.975	> 2.56	0.917	> 10	0.757	0.826	0.888	> 10
D-502MG (glioma, adherent)	0.657	0.111	0.668	2.46	0.844	> 2.5	0.789	3.71	0.955	> 20	0.557	0.974	0.682	4.3	0.969	> 20	0.971	> 5	0.972	> 4	0.975	> 1.02	0.977	> 2.56	0.892	> 10	0.849	> 2	0.954	> 10
DB (B-cell lymphoma, suspension)	0.201	0.00364	0.745	3.58	0.906	> 2.5	0.747	1.77	0.855	19.2	0.707	2.61	0.794	8.43	0.957	> 20	0.947	> 5	0.983	> 4	0.971	> 1.02	0.972	> 2.56	0.934	> 10	0.649	0.342	0.89	> 10
